# According to PubChem BioAssay (NCATS):
# Values joined by “and” are separate entries in the source; they are usually repeats but may differ in a detail not shown here. Equal values may be shown once. The inconclusive results got no clear call from the source; some entries with a clear call stand among them for comparison. A potency beside an inconclusive call is a rough fit, not a confirmed value. Active and inactive are the calls of the source. Calls come from the whole dose curve; as a rule, active = well fitted curve in the direction sought with a large enough effect; inconclusive = small, poorly fitted or top-dose-only effect, or another doubt; inactive = no such curve, though single readings can be large; an effect the other way counts as inactive or inconclusive.
# What was measured:
# [1] = P-glycoprotein substrates identified in KB-8-5-11 adenocarcinoma cell line, qHTS therapeutic library screen (AID 1346987); note: nearly all actives have a fitted effect of over 65% in size
# Outline: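 Compounds are pinned in dose-response onto KB-8-5-11 cells (500 cells/well, colchicine-free medium) and left 72 h at 37 degree C. CellTiter-Glo luminescence then yields AC50 values.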
# [2] = Primary qHTS for inhibitors of nuclear receptor binding SET domain protein 2 (NSD2) in an RCH-ACV wild type WT cells (2C) (AID 1645877); conditions: activity change, negative = cell killing: at 44.9 µM (top of the series); note: nearly all actives have a fitted effect of over 70% in size
# [3] = Primary fluorescence-based thiol-reactive (MSTI) qHTS assay for identification of artifact compounds. (AID 1845221);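 note: thiol-reactive compounds lower the probe fluorescence signal; nearly all actives have a fitted effect of over 65% in size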
# Outline: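 One-hour, room-temperature, dark incubation of compound with 4 uM MSTI in PBS (pH 7.4, 2% DMSO) precedes a fluorescence read at 525 nm excitation, 598 nm emission; Hill-equation fitting yields concentration-response values.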
# CRL-7250 = normal cell line; experiment: Cytotoxic Profiling of Annotated Libraries Using Quantitative High-Throughput Screening (AID 1296008); conditions: Five cell lines viability, CellTiter-Glo ATP luminescence, 48-72 h; max response: stronger effect = lower value; note: nearly all actives have a fitted effect of over 60% in size; for max response: % is set by controls: 0 for no effect and ±100 for the full control effect
# Outline: (§1)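 Cells exposed to compounds for 48 or 72 hr at 37 degrees Celsius. Viability read as ATP-coupled luminescence with CellTiter-Glo after 10 min at room temperature.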
# HEK293 = experiment: as above; conditions: Five cell lines viability, CellTiter-Glo ATP luminescence, 48-72 h; max response: stronger effect = lower value
# Outline: as §1
# KB-3-1 = experiment: as above; conditions: Five cell lines viability, CellTiter-Glo ATP luminescence, 48-72 h; max response: stronger effect = lower value
# Outline: as §1
# NIH3T3 = experiment: as above; conditions: Five cell lines viability, CellTiter-Glo ATP luminescence, 48-72 h; max response: stronger effect = lower value
# Outline: as §1
# C33A = experiment: Primary qHTS to identify gynecologic anti-cancer compounds using libraries of approved drugs and bioactive compounds (AID 1345084); conditions: Gynecologic cancer cell panel viability, ATPlite luminescence, 48 h; series mostly up to 57.5 µM; note: nearly all actives have a fitted effect of over 55% in size; for activity change, negative = cytotoxicity: % is set by controls: 0 for no effect and ±100 for the full control effect
# Outline: (§2)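 In this quantitative HTS, cell killing is estimated from loss of ATP-dependent luciferase light. Cells see five compound concentrations over a 48 h exposure.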
# CAOV3 = experiment: as above; conditions: Gynecologic cancer cell panel viability, ATPlite luminescence, 48 h; series mostly up to 57.5 µM
# Outline: as §2
# CASKI = experiment: as above; conditions: Gynecologic cancer cell panel viability, ATPlite luminescence, 48 h; activity change, negative = cytotoxicity: at 57.5 µM (top of the series)
# Outline: as §2
# Es-2 = experiment: as above; conditions: Gynecologic cancer cell panel viability, ATPlite luminescence, 48 h; series mostly up to 57.5 µM
# Outline: as §2
# Hek293T = experiment: as above; conditions: Gynecologic cancer cell panel viability, ATPlite luminescence, 48 h, control line for the selectivity index; series mostly up to 57.5 µM
# Outline: as §2
# JEG-3 = experiment: as above; conditions: Gynecologic cancer cell panel viability, ATPlite luminescence, 48 h; series mostly up to 57.5 µM
# Outline: as §2
# OV90 = experiment: as above; conditions: Gynecologic cancer cell panel viability, ATPlite luminescence, 48 h; series mostly up to 57.5 µM
# Outline: as §2
# PA-1 = experiment: as above; conditions: Gynecologic cancer cell panel viability, ATPlite luminescence, 48 h; series mostly up to 57.5 µM
# Outline: as §2
# SKOV3 = experiment: as above; conditions: Gynecologic cancer cell panel viability, ATPlite luminescence, 48 h; series mostly up to 57.5 µM
# Outline: as §2
# Tov-21-G = experiment: as above; conditions: Gynecologic cancer cell panel viability, ATPlite luminescence, 48 h; activity change, negative = cytotoxicity: at 57.5 µM (top of the series)
# Outline: as §2
# Tov112D = experiment: as above; conditions: Gynecologic cancer cell panel viability, ATPlite luminescence, 48 h; activity change, negative = cytotoxicity: at 57.5 µM (top of the series)
# Outline: as §2
# [4] = Primary qHTS for inhibitors of nuclear receptor binding SET domain protein 2 (NSD2) in an isogenic RCH-ACV NSD2 p.E1099K mutant (9B) (AID 1645876); note: nearly all actives have a fitted effect of over 70% in size
# Potency is the fitted concentration of half-maximal effect; tags give direction and shape of the fitted curve.
compound,measurement,setting,value
O=C(NC1CCN(CCCCC2(C(=O)NCC(F)(F)F)c3ccccc3-c3ccccc32)CC1)c1ccccc1-c1ccc(C(F)(F)F)cc1,Potency,[1],active: 20.6 µM
same,Potency,[2],active: 2.9 µM
same,Potency,[3],"inconclusive: 1.89 µM [inhibitor, partial curve, poor fit]"
same,Potency,CRL-7250,"inconclusive: 29.1 µM [inhibitor, single point]"
same,Potency,HEK293,active: 11.6 µM
same,Potency,KB-3-1,"inconclusive: 18.4 µM [inhibitor, single point]"
same,Potency,NIH3T3,active: 7.31 µM
same,Potency,C33A,"inconclusive: 35.5 µM [cytotoxic, single point]"
same,Potency,CAOV3,"inconclusive: 39.8 µM [cytotoxic, partial curve, poor fit]"
same,Potency,CASKI,"inconclusive: 39.8 µM [cytotoxic, single point]"
same,Potency,Es-2,"inconclusive: 39.8 µM [cytotoxic, single point]"
same,Potency,Hek293T,"inconclusive: 39.8 µM [cytotoxic, single point]"
same,Potency,JEG-3,"inconclusive: 39.8 µM [cytotoxic, single point]"
same,Potency,OV90,"inconclusive: 35.5 µM [cytotoxic, single point]"
same,Potency,PA-1,active: 31.6 µM
same,Potency,SKOV3,"inconclusive: 39.8 µM [cytotoxic, single point]"
same,Potency,Tov-21-G,"inconclusive: 28.2 µM [cytotoxic, single point]"
same,Potency,Tov112D,"inconclusive: 39.8 µM [cytotoxic, single point]"
Cc1nc(N)ncc1-c1nc(N2CCOCC2)c2sc(C(C)(C)O)cc2n1,Potency,[4],active: 81.7 nM and active: 590 nM
same,Potency,CRL-7250,"inconclusive: 1.32 µM [inhibitor, full curve, poor fit] and active: 2.59 µM"
same,Potency,HEK293,active: 1.18 µM and active: 1.3 µM
same,Potency,KB-3-1,"inconclusive: 2.35 µM [inhibitor, full curve] and active: 3.66 µM"
same,Potency,C33A,active: 1.78 µM
same,Potency,CAOV3,"inconclusive: 3.16 µM [cytotoxic, partial curve, poor fit]"
same,Potency,CASKI,active: 0.501 µM
same,Potency,Es-2,"inconclusive: 15.8 µM [cytotoxic, partial curve]"
same,Potency,Hek293T,active: 3.16 µM
same,Potency,JEG-3,"inconclusive: 31.6 µM [cytotoxic, partial curve, poor fit]"
same,Potency,OV90,active: 3.55 µM
same,Potency,PA-1,active: 7.94 µM
same,Potency,SKOV3,active: 2.82 µM
same,Potency,Tov-21-G,active: 7.94 µM
same,Potency,Tov112D,"inconclusive: 7.94 µM [cytotoxic, full curve, poor fit]"
Clc1ccc2c(c1)N=C(N1CCNCC1)c1ccccc1N2,Potency,[1],"inconclusive: 23.1 µM [inhibitor, single point]"
same,Potency,[4],"inconclusive: 20.5 µM [inhibitor, single point]"
same,Potency,[2],"inconclusive: 23 µM [inhibitor, single point]"
same,Potency,[3],"inconclusive: 15 µM [inhibitor, partial curve, poor fit]"
same,Potency,CRL-7250,"inconclusive: 23.1 µM [inhibitor, single point]"
same,Potency,HEK293,"inconclusive: 29.1 µM [inhibitor, single point]"
same,Potency,KB-3-1,"inconclusive: 20.6 µM [inhibitor, single point]"
same,Potency,NIH3T3,"inconclusive: 25.9 µM [inhibitor, partial curve, poor fit]"
same,Potency,Es-2,inactive
same,Potency,OV90,"inconclusive: 39.8 µM [cytotoxic, single point]"
same,Potency,SKOV3,"inconclusive: 31.6 µM [cytotoxic, partial curve, poor fit]"
C/C=C(\C)[C@@H]1C(C)=C[C@@H]2[C@H]([C@@H]1/C=C/C=C/C(=O)O)[C@@H](C)CC[C@@H]2O,Potency,[1],active: 11.4 µM
same,Potency,[3],"inconclusive: 8.26 µM [inhibitor, partial curve]"
same,Potency,CRL-7250,"inconclusive: 20.2 µM [inhibitor, single point]"
same,Potency,HEK293,"inconclusive: 16.1 µM [inhibitor, single point]"
same,Potency,KB-3-1,active: 8.05 µM
same,Potency,NIH3T3,"inconclusive: 12.8 µM [inhibitor, single point]"
same,Potency,CAOV3,"inconclusive: 11.2 µM [cytotoxic, single point]"
same,Potency,CASKI,"inconclusive: 11.2 µM [cytotoxic, partial curve, poor fit]"
same,Potency,Es-2,"inconclusive: 22.4 µM [cytotoxic, single point]"
same,Potency,Hek293T,"inconclusive: 20 µM [cytotoxic, single point]"
same,Potency,JEG-3,"inconclusive: 28.2 µM [cytotoxic, single point]"
same,Potency,OV90,"inconclusive: 10 µM [cytotoxic, single point]"
same,Potency,PA-1,"inconclusive: 28.2 µM [cytotoxic, single point]"
same,Potency,SKOV3,"inconclusive: 2.24 µM [cytotoxic, single point]"
same,Potency,Tov-21-G,"inconclusive: 28.2 µM [cytotoxic, single point]"
same,Potency,Tov112D,"inconclusive: 28.2 µM [cytotoxic, single point]"
O=S(=O)(c1ccc(Cl)cc1)N1CCN(c2ccnc3cc(Cl)ccc23)CC1,Potency,[1],"inconclusive: 9.2 µM [inhibitor, partial curve]"
same,Potency,[4],"inconclusive: 18.3 µM [inhibitor, single point]"
same,Potency,[2],"inconclusive: 20.5 µM [inhibitor, single point]"
same,Potency,[3],inactive
same,Potency,CRL-7250,"inconclusive: 25.9 µM [inhibitor, single point]"
same,Potency,HEK293,"inconclusive: 29.1 µM [inhibitor, single point]"
same,Potency,KB-3-1,"inconclusive: 20.6 µM [inhibitor, single point]"
same,max response,NIH3T3,inactive: 3.17%
same,Potency,C33A,"inconclusive: 35.5 µM [cytotoxic, partial curve, poor fit]"
same,Potency,CAOV3,inactive
same,Potency,SKOV3,inactive
CN[C@@H]1C[C@H]2O[C@@](C)([C@H]1OC)n1c3ccccc3c3c4c(c5c6ccccc6n2c5c31)C(=O)N[C@H]4O,Potency,[1],active: 1.87 µM
same,Potency,CRL-7250,active: 0.264 µM
same,Potency,HEK293,active: 0.469 µM
same,Potency,KB-3-1,active: 2.64 µM
O=[N+]([O-])c1ccc(-[n+]2nc(-c3ccccc3)nn2-c2ccc(I)cc2)cc1,Potency,[1],active: 18.4 µM
same,Potency,[3],active: 10.6 µM
same,Potency,CRL-7250,"inconclusive: 25.9 µM [inhibitor, single point]"
same,Potency,HEK293,"inconclusive: 20.6 µM [inhibitor, partial curve, poor fit]"
same,Potency,KB-3-1,"inconclusive: 23.1 µM [inhibitor, single point]"
same,Potency,NIH3T3,"inconclusive: 14.6 µM [inhibitor, partial curve]"
same,Potency,CAOV3,active: 11.2 µM
same,Potency,OV90,"inconclusive: 31.6 µM [cytotoxic, single point]"
same,Potency,Tov-21-G,"inconclusive: 31.6 µM [cytotoxic, partial curve, poor fit]"
O=C(O)c1ccc(O)c2ncc(N3CCCN(CCc4cccc5ccccc45)CC3)cc12,Potency,[1],"inconclusive: 4.61 µM [inhibitor, full curve]"
same,Potency,[3],"inconclusive: 0.474 µM [inhibitor, full curve, poor fit]"
same,Potency,CRL-7250,"inconclusive: 8.2 µM [inhibitor, partial curve]"
same,Potency,HEK293,"inconclusive: 29.1 µM [inhibitor, single point]"
same,Potency,KB-3-1,"inconclusive: 4.11 µM [inhibitor, full curve]"
same,Potency,NIH3T3,"inconclusive: 16.4 µM [inhibitor, single point]"
same,Potency,C33A,"inconclusive: 39.8 µM [cytotoxic, single point]"
same,Potency,Es-2,"inconclusive: 39.8 µM [cytotoxic, single point]"
same,Potency,Hek293T,"inconclusive: 35.5 µM [cytotoxic, single point]"
same,Potency,JEG-3,"inconclusive: 39.8 µM [cytotoxic, single point]"
same,Potency,OV90,"inconclusive: 35.5 µM [cytotoxic, single point]"
same,Potency,PA-1,"inconclusive: 17.8 µM [cytotoxic, single point]"
same,Potency,SKOV3,"inconclusive: 39.8 µM [cytotoxic, single point]"
same,Potency,Tov-21-G,"inconclusive: 25.1 µM [cytotoxic, single point]"
same,Potency,Tov112D,"inconclusive: 39.8 µM [cytotoxic, single point]"
Nc1ncnc2c1ncn2[C@@H]1O[C@H](CO)C[C@H]1O,Potency,[2],"inconclusive: 29.5 µM [inhibitor, single point]"
same,Potency,[3],"inconclusive: 9.47 µM [inhibitor, partial curve]"
same,Potency,CRL-7250,"inconclusive: 13 µM [inhibitor, partial curve, poor fit]"
same,Potency,HEK293,"inconclusive: 0.517 µM [inhibitor, full curve, poor fit]"
same,Potency,KB-3-1,"inconclusive: 6.51 µM [inhibitor, full curve, poor fit]"
same,Potency,NIH3T3,"inconclusive: 0.92 µM [inhibitor, full curve, poor fit]"
same,Potency,CAOV3,"inconclusive: 35.5 µM [cytotoxic, single point]"
same,Potency,Es-2,inconclusive: 0.562 µM
same,Potency,Hek293T,inconclusive: 0.005 µM
same,Potency,PA-1,inconclusive: 0.891 µM
same,Potency,SKOV3,"inconclusive: 25.1 µM [cytotoxic, partial curve, poor fit]"
same,"activity change, negative = cytotoxicity",Tov-21-G,inconclusive: -61.3%
